Source: the supplement of paper PMC3334620
Whole data set: some 33,000 sequences, median “E-score (-0.5 to 0.5)” near -0.012, cut for the highest 2% near 0.27. The list shows a part of the results.

The sequences below were run against T1, Vhr1 (UniProt P40522) (assay: PBM E-score (8-mer binding enrichment) (E-score (-0.5 to 0.5)); higher = stronger / more preferred TF binding; most listed sequences are background and not binding sites). Details: protein concentration: 200 nM; construct: GST-full length.
T1 sequence: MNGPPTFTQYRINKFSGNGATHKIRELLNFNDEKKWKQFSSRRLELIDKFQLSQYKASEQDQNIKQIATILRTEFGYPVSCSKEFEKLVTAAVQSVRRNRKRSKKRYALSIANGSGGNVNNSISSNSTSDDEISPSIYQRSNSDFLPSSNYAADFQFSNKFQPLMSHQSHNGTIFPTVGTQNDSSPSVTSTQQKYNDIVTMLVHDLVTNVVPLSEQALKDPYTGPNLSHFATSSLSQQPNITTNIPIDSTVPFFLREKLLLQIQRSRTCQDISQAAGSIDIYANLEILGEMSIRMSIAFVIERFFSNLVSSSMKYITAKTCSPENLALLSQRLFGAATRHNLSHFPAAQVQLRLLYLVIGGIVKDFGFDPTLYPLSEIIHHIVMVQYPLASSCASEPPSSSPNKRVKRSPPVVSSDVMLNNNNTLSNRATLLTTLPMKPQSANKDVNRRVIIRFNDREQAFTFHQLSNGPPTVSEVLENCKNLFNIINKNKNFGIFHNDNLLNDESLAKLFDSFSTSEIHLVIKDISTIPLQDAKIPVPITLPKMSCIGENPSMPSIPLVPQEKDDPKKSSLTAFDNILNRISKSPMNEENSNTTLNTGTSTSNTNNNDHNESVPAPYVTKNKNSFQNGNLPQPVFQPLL
Procedure, shortened: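 For each ungapped eight-base word taken together with its reverse complement, the Universal PBM Analysis Suite assigned an E-score. Binding data came from GST-tagged yeast transcription factors, applied at about 100-200 nM, on universal all-10-mer Agilent arrays made double-stranded by primer extension. Fluorescent anti-GST marked bound protein, and scans were normalised with masliner.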

Sequence	PBM E-score
CCCACGCG	-0.0177
CGAACACG	-0.153
GGCTTGGA	-0.137
CCGATGCG	-0.0452
CGGTACGA	0.026
AAAATACA	-0.0261
CGAATAGC	-0.0698
GAAGGGCA	-0.0417
CAGTCACC	0.307
ACCTTGTG	0.0783
ATAACAAA	-0.116
ACAACTTA	-0.0681
AGACAGGG	-0.213
GTCCGTTA	-0.0753
AAGTAGCA	-0.0101
CCTGTCAG	-0.0391
ACTGCGCC	0.00594
ATGGAACC	-0.0125
ACGGGTCT	-0.0315
AGGATTTC	-0.0679
CTTCCTGC	-0.157
CAGTGCTA	0.0185

Sequence	PBM E-score
AAATTAAG	-0.268
CTATAACC	0.0268
CCATGCGG	-0.0155
AGTTATTA	0.0476
AGCCTGTG	-0.061
ATCTCTAC	-0.0237
CACTGCCG	0.173
GACTTTAA	-0.278
GTCATGCA	0.257
CCCCCACG	-0.227
ACATCGGA	0.0601
ATGTCGGG	0.185
CAGATCGA	-0.0512
AGGCCGAG	-0.121
TGGCTGAA	0.101
GCACGAAC	0.0284
CCATCTAA	-0.233
GGAATCAC	0.388
AGAGCACG	0.00968
AACACTAA	-0.0789
AACAACTG	-0.0196
GGAAATGA	-0.0111

Sequence	PBM E-score
GATAAGGA	0.0196
AATCACGT	0.225
CGCTAGCA	-0.207
ATAATGCC	-0.046
TACTCTGA	-0.0444
CATTTCCC	0.0757
CGTCCTAA	0.0547
GCGTGCAC	-0.0456
CGCGTTAC	-0.0726
GACCTAGA	0.0117
CATAACGG	-0.047
GTTAAAAC	-0.295
TTCTAAAA	-0.325
AAGATGCC	-0.0209
CTCCAAAG	0.0215
AGGGGAAC	-0.0228
ACTTTAGC	-0.128
CCTACTCG	-0.00717
CATAAACC	0.209
AGGTATGG	0.182
ATGTCTAC	-0.00143
AAAAAACT	-0.192

Sequence	PBM E-score
GATACATC	0.224
ATGTTGGA	0.169
GCTTTCCA	-0.123
GGTTTTCA	-0.00994
GATGCAGA	0.038
CTAACGAG	0.114
CCTGAACG	-0.143
CCAACCGA	0.175
AGGCCCCA	-0.273
ACCCCTAA	-0.167
ACAAAGGT	-0.147
ACAAACGT	-0.05
ACACACAA	0.226
CGAGCGCC	-0.0552
AGCTGAGG	-0.131
CGAGGACC	-0.0893
CCGGTTCG	-0.0156
AGCCATGC	0.128
AGATGGGG	-0.00259
AACTTAGA	-0.254
ACGAGCGT	-0.00766
CGTCTGGA	-0.0153

Sequence	PBM E-score
AGCTCACA	-0.0321
CACTAGAC	0.0875
ACTGCTAA	-0.231
ATAGTGCA	-0.056
GGATCCTA	-0.0765
AGCTTTAT	-0.243
GACATTGA	-0.0452
AAATAGCA	-0.229
CTCGCGGA	0.0268
CCATCCAG	0.077
ATTTCCAA	-0.268
CCCATCAA	0.137
TGCTGCCA	-0.00984
CACCTTCC	0.106
AAAGTCTA	-0.357
ATTCCACA	0.231
GAGAACAA	0.00865
ACTGACGC	-0.178
AGGACTTG	-0.0923
GCGAAGGA	-0.0901
GTATAGGA	-0.121
